Experimental data: PubChem BioAssay (NCATS)
The inconclusive results got no clear call from the source; some entries with a clear call stand among them for comparison. A potency beside an inconclusive call is a rough fit, not a confirmed value. Activity calls are given as the source filed them. The call rests on the fitted dose curve; in most records, active means well fitted activation curve with a large enough effect in the signal ratio, with a control signal flat (not every such curve was filed as active); inconclusive means small, poorly fitted or top-dose-only effect, or effect the other way, or a change in a side signal; inactive means flat fitted curve, though single readings scatter; the % refers to the signal ratio.

Experiment: qHTS Assay for Identification of Small Molecule Agonists for Hypoxia Response Element Signaling Pathway (AID 914); on activation: top concentration of the series differs between compounds; % of control where 0% means no effect
Conditions: ME-180 (cervical carcinoma) HRE-bla reporter, beta-lactamase ratio, CoCl2, 17 h; activation: active compounds read high
How it was run: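 AC50 values come from titration-series %Activity, taken as the 460/530nm ratio of CCF4 fluorescence (excitation 405nm). CellSensor HRE-bla ME-180 cells were treated 17 hours at 37 C with compound plus an EC50 level of CoCl2.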
Potency means the concentration at half of the fitted maximal effect; tags describe the fitted curve by direction and shape or compound fluorescence and quenching.

**Q.** Which Potency does the source give for `COC(=O)N1CCC2(CCCN(c3ccc(-c4ccccc4)cc3)C2)CC1` here?
**A.** The Potency was inconclusive: 0.316 µM [inhibitor, single point].

**Q.** Which activation does the source give for `NC[C@H]1O[C@@H](n2cnc3c(=O)[nH]c(N)nc32)[C@@H](O)[C@@H]1O` here?
**A.** The activation was inactive: 4.86%.

**Q.** Which activation does the source give for `COc1ccc(OC)c(-c2cc(C(=O)O)c3cc4ccccc4cc3n2)c1` here?
**A.** Its activation is inconclusive: -14.5%.

**Q.** For `COc1ccc(CN(C)CCc2ccccn2)c(OC)c1OC`, which activation is on record?
**A.** The activation was inconclusive: 1.18%.

**Q.** Which Potency does the source give for `O=C(O)CC(NCc1ccco1)C(=O)OCCc1ccccc1` (stereo not drawn) here?
**A.** The Potency was inconclusive: 12.6 µM [inhibitor, single point].

**Q.** Which Potency does the source give for `CCOc1nc(SCCOc2ccccc2)nc(N(C)C)n1` here?
**A.** Its Potency is inconclusive: 10 µM [inhibitor, partial curve].

**Q.** With `Cn1c(=O)c2c(nc(NCc3ccc4c(c3)OCO4)n2Cc2ccc(F)cc2)n(C)c1=O` as the molecule, how does the Potency read?
**A.** Its Potency is inconclusive: 10 µM [inhibitor, single point].

**Q.** With `N#Cc1c(N2CCOCC2)nc(-c2ccco2)c2c1CCCC2` as the molecule, how does the Potency read?
**A.** Its Potency is inconclusive: 5.01 µM [activator, partial curve].

**Q.** For `CC[C@@H](c1ccc2cc(O)ccc2c1)C(C)(C)C(=O)O`, which activation is on record?
**A.** The activation was inconclusive: -0.278%.

**Q.** For `COCCNc1nc2c(c(=O)n(Cc3ccc(OC)cc3)c(=O)n2C)n1C`, which activation is on record?
**A.** The activation was inactive: -9.75%.

**Q.** For `CCOC(=O)c1c(N)sc(=S)c2c1CCC2`, which activation is on record?
**A.** The activation was inconclusive: -37.1%.

**Q.** For `NC(=O)CSc1nc(N)c2c3c(sc2n1)CCCCC3`, which activation is on record?
**A.** The activation was inactive: -10.3%.

**Q.** With `O=C(NC1(C(F)(F)F)C(=O)Nc2c1c(=O)[nH]c(=O)n2Cc1ccco1)C1CCCCC1` (stereo not drawn) as the molecule, how does the activation read?
**A.** The activation was inactive: -5.1%.
